# Experimental data: the supplement of paper PMC11417369
# ± gives the standard deviation of the averaged measurements. The list shows a part of the results.
# Test system: PfAP2-I AP2 domain 3 (GST-tagged)
# Test: gcPBM binding intensity (ln(normalized median fluorescence intensity)); higher = stronger DNA binding
# Procedure, shortened: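 Using an Agilent 4 × 180k array, primer-extended double-stranded 36-bp intergenic genomic probes and negative controls were exposed for 1 h to GST-fused P. falciparum DNA-binding domains expressed in E. coli. Binding was carried out in 1× PBS with 1% milk, 0.2 mg/ml BSA, 0.5% salmon testes DNA and 0.03% Triton X-100, and protein was detected with Alexa488 anti-GST antibody and a 488 nm scan. Binding intensity is the highest Masliner-normalised natural-log median intensity across replicate spots of either probe orientation.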
row,Sequence,gcPBM binding intensity (ln)
1,TATTGCCCGAAACACACACACATATATATATATATA [CACACA_site2491],9.31 ± 0.4
2,TATAATATTTACGACAGTACATATATATATATGTAT [XGTACX_site8332],7.74 ± 0.31
3,AAATAATTTGTTGACACACACACACCCATACATATA [CACACA_site2285],8.23 ± 0.4
4,ATTATATGTAACACGTGTACCTATTTATGTATGCTT [XGTACX_site5748],7.79 ± 0.66
5,GATATATAAACATATACACACAAAAACATATTTATA [CACACA_site6734],7.68 ± 0.22
6,AATATACAAAATATCACACATATAAAATAATATATA [CACACA_site6067],7.49 ± 0.36
7,AATGGTTCAACGTAGTGTACGTAATAAATAATAAAT [XGTACX_site8668],7.97 ± 0.65
8,AAATAATATGTAATCAAATTCACCAAACGAAAAAAA [TGCATGCA_negctrl_site33],7.62 ± 0.61
9,TGATAATTTCATTTTGCATGTGACAATACAAGATGT [TGCATGCA_site203],7.79 ± 0.64
10,ATCCAAAAAATTAATGCATGCGCAAAAAATAGCTTA [TGCATGCA_site615],7.88 ± 0.63
11,TGTCCTTATTTGCACACACACATATAAGAAATTTAA [CACACA_site7485],10.1 ± 0.4
12,AAAAAAAAAACATACACACACATATATATATATATG [CACACA_site1586],8.14 ± 0.22
13,TTTGTTTTATCTTATATGCACACGATAAAAAAAAAA [CACACA_site2673],9.42 ± 0.042
14,AGATGATATACGTAAACACACAAATAAAAAAAATTT [CACACA_site3327],7.74 ± 0.73
15,ACAAAAAAATAAGGTGCACACAAAAAAAAAAAAAAA [CACACA_site8171],10.7 ± 0.76
16,ATATAGCATATAATTTGTACACAGGCCATACCTGAA [XGTACX_site533],7.83 ± 0.72
17,GAGTTCAGTTTTTGTTGTACTTATTCTTAATATGTC [XGTACX_site6083],7.93 ± 0.38
18,TTTTTTTTTTTTTGATGTACTTATTTAATAAGATAT [XGTACX_site376],8.22 ± 0.58
19,TATATGGCATATTTCACACACACATAATGAATATTA [CACACA_site9181],7.79 ± 0.56
20,AATACGTTATTATTTTGTACATATAAATAATAAGTT [XGTACX_site815],7.64 ± 0.49
21,ACTCTTTTAACGCAAAGTACTTTTTAAAATATTTCG [XGTACX_site7534],8.46 ± 0.52
22,ATTTCTATTTGGGTTAGTACATATAAGTCTATTTTC [XGTACX_site3234],7.92 ± 0.52

row,Sequence,gcPBM binding intensity (ln)
1,AACATACGAATATTCACACATAAATATATAAATCGC [CACACA_site4672],7.67 ± 0.56
2,TTTTTTTTTTCTTTTTGTACATATTCATAACAAGTA [XGTACX_site2784],8.12 ± 0.5
3,TATATAATCGAGTGCACACACAAAAAAAAAGTGAAC [CACACA_site1483],10.1 ± 0.45
4,TATTATATATATATCACACATATATTCATGTACATA [CACACA_site5432],7.96 ± 0.52
5,ATATATAATATTTATTGTACTATTTTATTTTTATAA [XGTACX_site705],7.84 ± 0.2
6,TTTGACATACCTCTTGCATGTGAAAAACTTTTCGCT [TGCATGCA_site364],7.61 ± 0.82
7,AAAAAAGACCATGTTAGTACATAAGATTTTTTTCAT [XGTACX_site4298],7.53 ± 0.57
8,TTCTAGAAAACTGATCGTACAAATAAATATAGACAC [XGTACX_site2808],8.46 ± 0.16
9,ATATATTATAATGATACACACAAGAAATAAAATTAC [CACACA_site3095],8.04 ± 0.54
10,TATAAAATAAAAGTAAATATATATATATATATATAT [TGCATGCA_negctrl_site208],9.29 ± 0.52
11,AAAATAGGGATCACGTGTACATATAAAGTGACATAC [XGTACX_site8190],8.23 ± 0.8
12,AATGCATACACATATTGTACTAAGCCATACAACACA [XGTACX_site305],7.82 ± 0.69
13,TATGTAGGTAAAAATTGTACTTTTTTTTTAATATTT [XGTACX_site2303],7.67 ± 0.28
14,TGACATAATGTGTGTAGTACATATATCGTTATTTGA [XGTACX_site5152],7.71 ± 0.54
15,TGAATAAATATAAAAGGTACACATATAAATATATAT [XGTACX_site6349],7.74 ± 0.58
16,TAACTCTATTTTTTTGCATGCTGAAGCTATGAGTTT [TGCATGCA_site821],7.51 ± 0.85
17,CACAAAAATAGACACACACACATATAAATAAATATA [CACACA_site6598],7.67 ± 0.44
18,ATAATATTATGTGTGAATATATCTTTAAAAAGGATA [GTGCAC_negctrl_site15],7.46 ± 0.53
19,TATATATTTCATAATACACACGAAAAAAAAAAAAAA [CACACA_site8972],8.16 ± 0.55
20,ATAAAAATAAAATAAGGTACAGACGAAAAAATTGAA [XGTACX_site5097],7.96 ± 0.7
21,TATATATATAAATACACACACACCGTCCGTGTTAAA [CACACA_site5623],8.54 ± 0.53
22,ATATATATTATATAGTGTACCTATGTATAATAATAT [XGTACX_site1683],7.76 ± 0.4
